Here are results for two molecules from PMC8336524, “Yeast Bromodomain Factor 1 and Its Human Homolog TAF1 Play Conserved Roles in Promoting Homologous Recombination” (Advanced Science, 2021).

Chains of the proteins cited; added tags and fusions are not shown.
UniProt P22336: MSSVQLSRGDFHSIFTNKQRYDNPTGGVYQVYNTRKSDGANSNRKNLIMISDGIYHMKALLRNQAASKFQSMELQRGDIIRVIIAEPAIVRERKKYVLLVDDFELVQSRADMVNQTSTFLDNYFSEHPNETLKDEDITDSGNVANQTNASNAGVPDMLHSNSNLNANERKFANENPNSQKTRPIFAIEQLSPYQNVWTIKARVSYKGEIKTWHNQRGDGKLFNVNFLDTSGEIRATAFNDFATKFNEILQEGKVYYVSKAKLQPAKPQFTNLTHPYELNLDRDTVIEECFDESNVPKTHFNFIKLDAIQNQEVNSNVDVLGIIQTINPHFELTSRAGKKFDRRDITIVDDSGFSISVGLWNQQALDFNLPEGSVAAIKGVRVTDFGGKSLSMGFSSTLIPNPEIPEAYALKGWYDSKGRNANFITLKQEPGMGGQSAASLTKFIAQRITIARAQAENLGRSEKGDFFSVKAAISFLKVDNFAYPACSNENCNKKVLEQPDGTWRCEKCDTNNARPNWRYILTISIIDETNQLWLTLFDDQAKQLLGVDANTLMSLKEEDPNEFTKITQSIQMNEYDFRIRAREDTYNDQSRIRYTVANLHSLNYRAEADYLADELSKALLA

No constants are given. Whether binding was seen depends on the method and setting. For some of these results: Binding seen in cells or lysates may run through a third protein. Some entries that bind do so weakly or less than the wild type. Where a sequence is shown, tags or fusion partners need not be part of it.

Assay [1] deals with T1, GST‐Bdf1 residues 1–287 (yeast) (UniProt P35817).
T1 sequence: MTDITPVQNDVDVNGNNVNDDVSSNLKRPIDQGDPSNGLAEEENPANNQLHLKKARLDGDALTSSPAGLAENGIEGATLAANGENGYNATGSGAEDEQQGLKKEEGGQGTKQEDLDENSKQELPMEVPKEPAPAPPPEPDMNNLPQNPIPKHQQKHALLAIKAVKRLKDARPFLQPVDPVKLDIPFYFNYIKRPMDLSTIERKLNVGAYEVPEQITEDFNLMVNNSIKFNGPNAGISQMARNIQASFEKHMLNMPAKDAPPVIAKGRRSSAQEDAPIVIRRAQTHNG
Nature of the assay: pull-down; GST or GST fusion proteins immobilized on GSH‐sepharose beads, incubated with His‐tagged proteins at 4 °C for 4 h; wash 20 mM Tris–HCl pH 7.4, 200 mM NaCl, 0.5 mM EDTA; Western blot with anti‐His antibody; both purified. A general note: Immunoblotting shows a protein as a band on a membrane.

Assay [2] concerns the target T2, GST‐Bdf1 residues 1‐558 without fragment A (yeast) (UniProt P35817).
T2 sequence: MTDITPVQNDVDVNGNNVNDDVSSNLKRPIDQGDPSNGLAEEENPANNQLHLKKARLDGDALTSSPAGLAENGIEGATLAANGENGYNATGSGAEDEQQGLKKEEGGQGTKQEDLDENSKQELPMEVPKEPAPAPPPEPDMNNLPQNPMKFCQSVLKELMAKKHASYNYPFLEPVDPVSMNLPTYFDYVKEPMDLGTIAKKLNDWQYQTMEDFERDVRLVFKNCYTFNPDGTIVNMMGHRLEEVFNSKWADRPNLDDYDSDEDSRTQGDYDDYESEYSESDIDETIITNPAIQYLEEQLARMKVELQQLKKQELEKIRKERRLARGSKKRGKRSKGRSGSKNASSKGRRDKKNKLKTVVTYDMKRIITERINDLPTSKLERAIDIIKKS
The description is as above.

Assay [3] deals with T3, GST‐Bdf1 fragment B (residues 419–686) (yeast) (UniProt P35817).
T3 sequence: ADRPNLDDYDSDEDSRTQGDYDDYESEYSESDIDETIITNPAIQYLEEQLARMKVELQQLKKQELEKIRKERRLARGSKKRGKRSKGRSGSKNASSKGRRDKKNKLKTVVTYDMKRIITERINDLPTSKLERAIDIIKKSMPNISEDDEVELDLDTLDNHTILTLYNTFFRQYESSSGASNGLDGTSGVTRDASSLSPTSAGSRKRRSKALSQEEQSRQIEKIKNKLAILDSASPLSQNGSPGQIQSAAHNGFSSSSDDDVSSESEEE
Described as above.

In another assay the target is T4, GST‐bdf1‐ΔRB (yeast) (UniProt P35817).
T4 sequence: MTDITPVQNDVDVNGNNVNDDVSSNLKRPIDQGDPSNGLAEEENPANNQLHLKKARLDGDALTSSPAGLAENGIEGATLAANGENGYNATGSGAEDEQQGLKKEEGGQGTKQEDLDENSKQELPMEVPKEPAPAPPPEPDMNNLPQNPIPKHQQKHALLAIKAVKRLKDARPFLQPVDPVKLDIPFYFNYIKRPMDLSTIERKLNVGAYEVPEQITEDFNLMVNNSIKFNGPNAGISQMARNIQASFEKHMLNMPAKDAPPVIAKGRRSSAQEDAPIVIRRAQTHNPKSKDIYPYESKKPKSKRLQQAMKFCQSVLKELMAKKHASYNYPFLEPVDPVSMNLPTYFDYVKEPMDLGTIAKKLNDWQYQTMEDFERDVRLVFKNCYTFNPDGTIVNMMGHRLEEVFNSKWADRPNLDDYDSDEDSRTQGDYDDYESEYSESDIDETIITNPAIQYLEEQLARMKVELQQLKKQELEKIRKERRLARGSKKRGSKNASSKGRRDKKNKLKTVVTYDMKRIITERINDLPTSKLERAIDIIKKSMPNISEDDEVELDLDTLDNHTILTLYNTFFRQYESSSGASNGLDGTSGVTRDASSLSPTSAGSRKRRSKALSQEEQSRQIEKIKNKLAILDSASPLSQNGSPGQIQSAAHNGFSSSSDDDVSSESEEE
The description is as above.

The target of assay [4] is T5, GST‐Bdf1 fragment A (residues 149–317) (yeast) (UniProt P35817).
T5 sequence: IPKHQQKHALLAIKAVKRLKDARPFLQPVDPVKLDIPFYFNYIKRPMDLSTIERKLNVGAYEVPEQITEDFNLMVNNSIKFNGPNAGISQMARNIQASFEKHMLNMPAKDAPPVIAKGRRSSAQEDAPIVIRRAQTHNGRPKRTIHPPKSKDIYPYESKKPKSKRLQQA
The description is as above.

The target in assay [5] is T6, GST‐Bdf1 residues 1–491 without fragment A (yeast) (UniProt P35817).
T6 sequence: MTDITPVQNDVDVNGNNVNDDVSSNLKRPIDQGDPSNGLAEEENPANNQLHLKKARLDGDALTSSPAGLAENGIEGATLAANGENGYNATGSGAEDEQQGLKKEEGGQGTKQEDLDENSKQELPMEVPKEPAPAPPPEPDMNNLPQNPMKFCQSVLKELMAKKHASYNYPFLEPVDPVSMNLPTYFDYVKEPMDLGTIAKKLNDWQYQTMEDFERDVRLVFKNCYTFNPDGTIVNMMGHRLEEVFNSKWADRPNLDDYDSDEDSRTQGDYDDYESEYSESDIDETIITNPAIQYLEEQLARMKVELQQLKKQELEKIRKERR
The assay is described as above.

The next assay addresses Rfa1‐3xHA (yeast) (UniProt P22336). Nature of the assay: co-IP; yeast lysates, cells with or without MMS (0.1%, 90 min); benzonase 500 U/mL; anti‐HA or anti‐FLAG antibody and protein G‐agarose.

As for 6xHis‐Rfa1 (from UniProt P22336 1-621), the binding entry in assay [1] is “no binding”; in assay [2], “binds”; in assay [3], “binds”; in the assay with GST‐bdf1‐ΔRB (yeast), “no binding”; in assay [4], “binds”; in assay [5], “no binding”.

B1: Bdf1‐3xFLAG (protein, UniProt P35817 1-686)
chain: MTDITPVQNDVDVNGNNVNDDVSSNLKRPIDQGDPSNGLAEEENPANNQLHLKKARLDGDALTSSPAGLAENGIEGATLAANGENGYNATGSGAEDEQQGLKKEEGGQGTKQEDLDENSKQELPMEVPKEPAPAPPPEPDMNNLPQNPIPKHQQKHALLAIKAVKRLKDARPFLQPVDPVKLDIPFYFNYIKRPMDLSTIERKLNVGAYEVPEQITEDFNLMVNNSIKFNGPNAGISQMARNIQASFEKHMLNMPAKDAPPVIAKGRRSSAQEDAPIVIRRAQTHNGRPKRTIHPPKSKDIYPYESKKPKSKRLQQAMKFCQSVLKELMAKKHASYNYPFLEPVDPVSMNLPTYFDYVKEPMDLGTIAKKLNDWQYQTMEDFERDVRLVFKNCYTFNPDGTIVNMMGHRLEEVFNSKWADRPNLDDYDSDEDSRTQGDYDDYESEYSESDIDETIITNPAIQYLEEQLARMKVELQQLKKQELEKIRKERRLARGSKKRGKRSKGRSGSKNASSKGRRDKKNKLKTVVTYDMKRIITERINDLPTSKLERAIDIIKKSMPNISEDDEVELDLDTLDNHTILTLYNTFFRQYESSSGASNGLDGTSGVTRDASSLSPTSAGSRKRRSKALSQEEQSRQIEKIKNKLAILDSASPLSQNGSPGQIQSAAHNGFSSSSDDDVSSESEEE
On to B1, for which, in the assay with Rfa1‐3xHA (yeast), the binding entry was “binds”.
